Results taken from patent US12263248B2, “Compounds and compositions for intracellular delivery of therapeutic agents” (ModernaTX, Inc., priority 2018, dated 2025).
For some assays here: The name of at least one read-out is uncertain. For some assays here: At least one compound was matched to its structure with a doubt left. Some entries share one result that the patent states for a list of compounds.

How the values were obtained:
[1] = tested on: hEPO mRNA; assay: hEPO expression after intramuscular administration to mice; type: in vivo; conditions: relative to MC3 formulation
Description: The expression of hEPO and cytokine induction in mice intravenously administered a nanoparticle composition at a dose of 0.5 mpk were measured at 3, 6, and 24 hours. […] The expression of hEPO in mice intramuscularly administered a nanoparticle composition from Table 1B at a dose of 0.01 mpk were measured at 3, 6, and 24 hours.
Blood collection and analysis for hEPO. Blood was collected from mice or rats via the tail vein and hEPO concentrations were determined using a hEPO ELISA assay.

[2] = Residual lipid levels in rat liver and spleen (UPLC-MS); type: in vivo; conditions: for lipid remained in the liver after 48 hours: rats, i.v., 0.2 mpk or 2.0 mpk
Description: At 48 h liver tissue was harvested for lipid quantification. To pre-weighed tissues, Milli-Q water was added (900 μL water per 100 mg tissue). Tissues were homogenized using an Omni probe homogenizer until uniform. 50 μL of samples and matrix calibration standards were aliquoted into a 96-well plate. 50 μL of blank matrix for matrix blanks and control blanks were aliquoted. 400 μL is spiking solution were manually added to all samples except matrix blanks. 400 μL of 50:50 ACN:IPA were manually added to matrix blanks. The plate was covered and the samples vortexed and centrifuged for 5 minutes at >3000 rpm. 200 μL of the samples were transferred into a clean 96-well plate for analysis. Samples were analyzed on a Waters Acquity UPLC using a Higgins Analytical Clipeus C8 column ([…], 30×2.1 mm) and a gradient of either 70-95% or 60-95% (Mobile Phase A: 5 mM ammonium formate in 50:50:1 H2O:MeOH:formic acid; Mobile Phase B: 5 mM ammonium formate in 100:1 MeOH:formic acid) over 1.3 min at 1.2 mL/min (column temperature 55° C.). Detection was based on electrospray ionization (ESI) in positive mode using a Sciex API5500 Mass Spectrometer.
The expression of hEPO in rats intravenously administered a nanoparticle composition at a dose of 0.2 mpk or 2.0 mpk was measured at 6 hours. Table 16 summarize the ratio of hEPO expression levels using various nanoparticle compositions as compared to the hEPO expression level using MC3 formulation and the lipid levels in the liver measured 48 hours after administration, as described above. Tables 17 and 18 summarize the lipid levels in the liver and spleen measured 48 hours after administration of Compounds 28, 33, 53, and 54. Liver and spleen levels represent the average values calculated for 3 rats in each group. As is shown in Tables 17 and 18, less than 10% of Compounds 28, 33, 53, and 54 remained in the liver after 48 hours, while greater than 60% of MC3 remained.
005781 The expression of hEPO and lipid levels in the liver and spleen in rats intravenously administered a nanoparticle composition at a dose of 0.2 mpk was measured at various time points. Compounds 18 and 25 were selected for comparison with MC3. Lipids were formulated according to the standard MC3 formulation described above. Rats were administered intravenously a single 0.2 mpk dose and expression monitored at 0.25, 0.5, 1, 2, 4, 8, 24, and 48 hours after administration.

[3] = tested on: luciferase (Luc) mRNA; assay: Luc expression in liver, lung, spleen and femur 6 hours after intravenous administration; type: in vivo; conditions: mice, i.v., 0.5 mpk, in words
In short: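 LNP-formulated mRNA given IV to mice (n=3) at 0.5 mpk; at 6 h, bioluminescence imaged ex vivo 15 min after IP D-luciferin (15 mg/mL, 200 μL), organs imaged within 25 min. Values are total flux by region of interest.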

[4] = tested on: luciferase (Luc) mRNA; assay: Luc expression, whole body bioluminescence after intravenous administration to mice; type: in vivo; conditions: for Novel lipid/MC3 ratio, 6 hr. timepoint, i.v. / Novel lipid/MC3 expression ratio, 6 hr. time point, i.v.: luciferase, intravenous; for Novel lipid/MC3 ratio, 6 hr. timepoint, i.v.: relative to MC3, Table 3G; for Novel lipid/MC3 expression ratio, 6 hr. time point, i.v.: relative to MC3 formulation; for flux at all timepoints measured: mice, i.v., 0.5 mg/kg, 3, 6 and 24 hour, in words
In short: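 Luc mRNA nanoparticle formulations given intravenously to mice (n=6) at 0.5 mg/kg; whole-body bioluminescence imaged at 3, 6 and 24 h. CD-1 mice received IP D-luciferin (200 μL of 15 mg/mL) 15 min before imaging; total flux quantified by region of interest.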

[5] = Particle size and polydispersity index of nanoparticle compositions (Zetasizer Nano ZS); type: physicochemical; conditions: for PDI / Size (nm): Table 1A; for Size (nm): lipid:DSPC:cholesterol:PEG-DMG 50:10:38.5:1.5 mol %
Description: A Zetasizer Nano ZS (Malvern Instruments Ltd, Malvern, Worcestershire, UK) can be used to determine the particle size, the polydispersity index (PDI) and the zeta potential of the nanoparticle compositions in 1×PBS in determining particle size and 15 mM PBS in determining zeta potential.

[6] = Encapsulation efficiency of RNA (QUANT-IT RIBOGREEN RNA assay); type: physicochemical; conditions: Table 1A
Description: For nanoparticle compositions including an RNA, a QUANT-IT™ RIBOGREEN® RNA assay (Invitrogen Corporation Carlsbad, CA) can be used to evaluate the encapsulation of an RNA by the nanoparticle composition. The samples are diluted to a concentration of approximately […] in a TE buffer solution (10 mM Tris-HCl, 1 mM EDTA, pH 7.5). 50 μL of the diluted samples are transferred to a polystyrene 96 well plate and either 50 μL of TE buffer or 50 μL of a 2% Triton X-100 solution is added to the wells. The plate is incubated at a temperature of 37° C. for 15 minutes. The RIBOGREEN® reagent is diluted 1:100 in TE buffer, and 100 μL of this solution is added to each well. The fluorescence intensity can be measured using a fluorescence plate reader (Wallac Victor 1420 Multilabel Counter; Perkin Elmer, Waltham, MA) at an excitation wavelength of, for example, about 480 nm and an emission wavelength of, for example, about 520 nm. The fluorescence values of the reagent blank are subtracted from that of each of the samples and the percentage of free RNA is determined by dividing the fluorescence intensity of the intact sample (without addition of Triton X-100) by the fluorescence value of the disrupted sample (caused by the addition of Triton X-100).

[7] = tested on: luciferase (Luc) mRNA; assay: Luc expression (total flux) after intramuscular administration; type: in vivo, mice; conditions: relative to MC3 formulation
Description: In order to monitor how effectively various nanoparticle compositions deliver therapeutic and/or prophylactics to targeted cells, different nanoparticle compositions including a particular therapeutic and/or prophylactic (for example, a modified or naturally occurring RNA such as an mRNA) are prepared and administered to rodent populations. Mice are intravenously, intramuscularly, intraarterially, or intratumorally administered a single dose including a nanoparticle composition with a formulation such as those provided in Example 3. In some instances, mice may be made to inhale doses. Dose sizes may range from 0.001 mg/kg to 10 mg/kg, where 10 mg/kg describes a dose including 10 mg of a therapeutic and/or prophylactic in a nanoparticle composition for each 1 kg of body mass of the mouse. A control composition including PBS may also be employed.
Sample formulations including both modified luciferase (Luc) mRNA and H10 mRNA were prepared and administered intramuscularly and the resulting expression and immunogenicity were evaluated simultaneously. Formulations including compounds according to Formula (I), (IA), (IB), (II), (IIa), (IIb), (IIc), (IId), (IIe), (IIf), (IIg), (III), (VI), (VI-a), (VII), (VIII), (VIIa), (VIIIa), (VIIIb), (VIIb-1), (VIIb-2), (VIIb-3), (VIIc), (VIId), (VIIIc), or (VIIId) were prepared and administered at doses of 0.001 and 0.01 mpk (e.g., doses of 0.0005 mpk of a formulation including Luc mRNA and a formulation including H10 mRNA or doses of 0.005 mpk of a formulation including Luc mRNA and a formulation including H10 mRNA).
Sample formulations including modified luciferase (Luc) mRNA prepared and administered intramuscularly and the resulting expression and immunogenicity were evaluated simultaneously. Formulations including compounds according to Formula (I), (IA), (IB), (II), (IIa), (IIb), (IIc), (IId), (IIe), (IIf), (IIg), (III), (VI), (VI-a), (VII), (VIII), (VIIa), (VIIIa), (VIIIb), (VIIb-1), (VIIb-2), (VIIb-3), (VIIc), (VIId), (VIIIc), or (VIIId) were prepared and administered at dose of and 0.01 mpk.

## CCCCCCCCCCCOC(=O)CCCCCN(CCO)CCCCCCCC(=O)OC(CCCCCCCC)CCCCCCCC [Compound 25, Heptadecan-9-yl 8-((2-hydroxyethyl)(6-oxo-6-(undecyloxy)hexyl)amino)octanoate]
[1]
  Novel lipid/MC3 expression ratio, 6 hr. time point, i.m. hEPO: 7.1
[2]; Sprague Dawley rats, 48 h post dose
  parent amino lipid levels in the liver: < 1%
[3]
  Flux in the liver: comparable to that of MC3 formulations

## CCCCCCCCC(CCCCCCCC)OC(=O)CCCCCCCN(CCO)CCCC(=O)OCCCCCC [Compound 53, heptadecan-9-yl 8-((4-(hexyloxy)-4-oxobutyl)(2-hydroxyethyl)amino) octanoate]
[2]
  lipid remained in the liver after 48 hours: less than 10%
[3]
  Flux in the liver: comparable to that of MC3 formulations

## CCCCCCCCCOC(=O)CCCCCCCN(CCO)CCCCCCCC(=O)OC(CCCCC)CCCCCCCC (centres unmarked) [Compound 33, nonyl 8-((2-hydroxyethyl)(8-oxo-8-(tetradecan-6-yloxy)octyl)amino) octanoate]
[2]
  lipid remained in the liver after 48 hours: less than 10%

## CCCCCCCCC(CCCCCCCC)OC(=O)CCCCCCCN(CCO)CCCC(=O)OCCCCCCC [Compound 54, heptadecan-9-yl 8-((4-(heptyloxy)-4-oxobutyl)(2-hydroxyethyl)amino) octanoate]
[2]
  lipid remained in the liver after 48 hours: less than 10%
[3]
  Flux in the liver: comparable to that of MC3 formulations

## CCCCCCCCCOC(=O)CCCCCCCN(CCCCCCCC(=O)OC(CCCCCCCC)CCCCCCCC)CCCNC(=O)N(C)C [Compound 110, Heptadecan-9-yl 8-((3-(3,3-dimethylureido)propyl)(8-(nonyloxy)-8-oxooctyl)amino)octanoate]
[1]
  Novel lipid/MC3 expression ratio, 6 hr. time point, i.m. hEPO: 1.2
[4]
  Novel lipid/MC3 ratio, 6 hr. timepoint, i.v.: 0.19
  Novel lipid/MC3 expression ratio, 6 hr. time point, i.v.: 0.19

## CCCCCCCCCOC(=O)CCCCCCCN(C)CCCCCCCC(=O)OC(CCCCCCCC)CCCCCCCC [Compound 123, Heptadecan-9-yl 8-(methyl(8-(nonyloxy)-8-oxooctyl)amino)octanoate]
[5]
  PDI: 0.23
  Size (nm): 81.6 nm
[6]
  EE (%): 94.4%

## CCCCCCCCCOC(=O)CCCCCCCN(CCCCCCCC(=O)OC(CCCCCCCC)CCCCCCCC)CCCN/C(=N/C#N)N(C)C [Compound 168, Heptadecan-9-yl (Z)-8-((3-(2-cyano-3,3-dimethylguanidino)propyl)(8-(nonyloxy)-8-oxooctyl)amino)octanoate]
[7]
  Novel lipid/MC3 expression ratio, 6 hr. time point, i.m. Luc: 16.0
[1]
  Novel lipid/MC3 expression ratio, 6 hr. time point, i.m. hEPO: 6.3
[4]
  Novel lipid/MC3 expression ratio, 6 hr. time point, i.v.: 0.11

## CCCCCCCCC(CCCCCCCC)OC(=O)CCCCCCCN(CCO)CCCCCCCC(=O)OCC1CC1CCCCCC (centres unmarked) [Compound 28, Heptadecan-9-yl 8-((8-((2-hexylcyclopropyl)methoxy)-8-oxooctyl)(2-hydroxyethyl)amino)octanoate]
[2]
  lipid remained in the liver after 48 hours: less than 10%

## CCCCCCCCCOC(=O)CCCCCCCN(CCCCCCCC(=O)OC(CCCCCCCC)CCCCCCCC)CCCNC(=O)NC [Compound 112, Heptadecan-9-yl 8-((3-(3-methylureido)propyl)(8-(nonyloxy)-8-oxooctyl)amino)octanoate]
[1]
  Novel lipid/MC3 expression ratio, 6 hr. time point, i.m. hEPO: 1.6
[4]
  Novel lipid/MC3 ratio, 6 hr. timepoint, i.v.: 0.08
  Novel lipid/MC3 expression ratio, 6 hr. time point, i.v.: 0.08

## CCCCCCCCCCCCN(CCO)CCCCCCCCCCCC(=O)OC [Compound 137, Methyl 12-(dodecyl(2-hydroxyethyl)amino)dodecanoate]
[5]
  PDI: <1
  Size (nm): 184.4 nm
[5]; text on Tables 1A-1E
  size (e.g., diameter) of the compositions: largest particles
[4]
  flux at all timepoints measured: significantly lower flux
[6]
  EE (%): 85.7%

## CCCCCCCCCOC(=O)CCCCCCCN(CCO)CCCCCCCOC(=O)C(CCCCCCCC)CCCCCCCC [Compound 30, 7-((2-Hydroxyethyl)(8-(nonyloxy)-8-oxooctyl)amino)heptyl 2-octyldecanoate]
[1]
  Novel lipid/MC3 expression ratio, 6 hr. time point, i.m. hEPO: 9.2
[3]
  Flux in the liver: comparable to that of MC3 formulations

## CCCCCCCCCOC(=O)CCCCCCCN(CCCN)CCCCCCCC(=O)OC(CCCCCCCC)CCCCCCCC [Compound 121, Heptadecan-9-yl 8-((3-aminopropyl)(8-(nonyloxy)-8-oxooctyl)amino)octanoate]
[5]
  PDI: 0.18
  Size (nm): 98.4 nm
[4]
  flux at all timepoints measured: significantly lower flux
[6]
  EE (%): 100%
